Consider 60 compounds from the supplement of paper PMC9446081.

Each structure is given as a SMILES string. Among all 39,000 compounds or so, about 220 (0.56%) showed activity. This is one part of the list.
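Also: static incubation at 37 °C against the wild-type strain, values averaged over two biological replicates.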

The subject of this test is Escherichia coli K-12 BW25113. Briefly: relative growth (OD600 normalised to plate interquartile mean) (fraction); higher = less growth inhibition, active = 0.2 or less. The note with it: 50 µM; LB; incubation time: overnight (16-24 h).
Turning to `COc1ccc(S(=O)(=O)Nc2ccc3c(c2)C(=O)N([C@@H](C)CO)C[C@H](C)[C@@H](CN(C)C(=O)Nc2ccc(F)cc2)OCCCC[C@@H](C)O3)cc1`, the relative growth is inactive: 0.933.

`C[C@H]1CN([C@@H](C)CO)C(=O)c2cccc(NS(=O)(=O)c3ccc(F)cc3)c2O[C@H]1CN(C)C(=O)Nc1ccc(C(F)(F)F)cc1`: the relative growth is inactive: 0.998.

On to `CC(C)NC(=O)N(C)C[C@@H]1OCCCC[C@@H](C)Oc2ccc(NC(=O)C3CCCCC3)cc2C(=O)N([C@@H](C)CO)C[C@@H]1C`, for which the relative growth is inactive: 0.998. Then `COc1ccc(S(=O)(=O)Nc2ccc3c(c2)C(=O)N([C@H](C)CO)C[C@@H](C)[C@H](CN(C)C(=O)Nc2c(C)noc2C)OCCCC[C@@H](C)O3)cc1`, with inactive: 0.998. In the case of `CC1(C)O[C@@]2(C)CC[C@@H]1C[C@@H]2O[C@H]1O[C@@H](CO)[C@@H](O)[C@@H](O)[C@@H]1O` it was inactive: 0.999. On to `C[C@H]1CN([C@@H](C)CO)C(=O)c2cccc(NS(C)(=O)=O)c2O[C@H]1CN(C)S(C)(=O)=O`, for which the relative growth was inactive: 0.981. Then `C[C@@H]1CN([C@H](C)CO)C(=O)Cc2cc(NS(=O)(=O)c3cn(C)cn3)ccc2O[C@H]1CN(C)Cc1ccc2c(c1)OCO2`, with inactive: 1.01; and `C[C@@H]1CN([C@H](C)CO)S(=O)(=O)c2ccc(C#CC(C)(C)O)cc2O[C@@H]1CN(C)Cc1ccncc1`, with inactive: 0.987; and `O=C(O)C[C@@H]1CC[C@@H]2[C@H](COC[C@H](O)CN2S(=O)(=O)c2ccc(F)cc2)O1`, with inactive: 1. Take `C[C@@H]1CN([C@@H](C)CO)C(=O)c2cccc(NC(=O)Nc3ccc(F)cc3)c2O[C@@H]1CN(C)Cc1ccc(Cl)c(Cl)c1`: the relative growth is inactive: 1.01. In the case of `COc1ccc(NC(=O)Nc2ccc3c(c2)C(=O)N([C@@H](C)CO)C[C@H](C)[C@@H](CN(C)C(=O)CCC(F)(F)F)OCCCC[C@@H](C)O3)cc1` it was inactive: 1.03; in that of `C[C@H](CO)N1C[C@H](C)[C@@H](CN(C)CC2CCCCC2)Oc2ccc(NC(=O)Nc3ccc(F)cc3)cc2CC1=O`, inactive: 0.973; in that of `Cc1noc(C)c1NC(=O)Nc1ccc2c(c1)C(=O)N([C@@H](C)CO)C[C@@H](C)[C@@H](CN(C)C(=O)C1CCCCC1)OCCCC[C@H](C)O2`, inactive: 0.991. Then `COc1ccc(S(=O)(=O)N(C)C[C@H]2Oc3c(NS(=O)(=O)c4cccs4)cccc3C(=O)N([C@@H](C)CO)C[C@@H]2C)cc1`, with inactive: 1.01.

Regarding `C[C@@H]1CN([C@H](C)CO)C(=O)c2cccc(NC(=O)c3ccc(-c4nccs4)cc3)c2O[C@H]1CN(C)S(=O)(=O)c1ccc(Cl)cc1`, the relative growth was inactive: 1.02. Then `CC(=O)N1C[C@@H]2C(=O)N(C)C3(CCN(S(=O)(=O)Cc4ccccc4)CC3)[C@H]2C1`, with inactive: 0.958; and `C[C@H]1CCCCO[C@H](CN(C)C(=O)C2CCCCC2)[C@@H](C)CN([C@@H](C)CO)C(=O)c2cc(NC(=O)Nc3ccc(C(F)(F)F)cc3)ccc2O1`, with inactive: 1.06; and `C[C@@H]1CCCCO[C@H](CN(C)C(=O)Nc2ccccc2)[C@@H](C)CN([C@H](C)CO)C(=O)c2cc(NC(=O)Nc3ccc4c(c3)OCO4)ccc2O1`, with inactive: 1.01.

With `COc1ccc(NC(=O)Nc2ccc3c(c2)C(=O)N([C@@H](C)CO)C[C@H](C)[C@@H](CN(C)C(=O)Nc2cccc4ccccc24)O3)cc1`, the relative growth was inactive: 1. Take `COc1ccc(S(=O)(=O)N(C)C[C@@H]2Oc3ncc(-c4cccc(F)c4)cc3C(=O)N([C@H](C)CO)C[C@@H]2C)cc1`: the relative growth was inactive: 1.01.

As to `CCCNC(=O)Nc1ccc2c(c1)OC[C@@H](C)N(Cc1ccc(-c3ccccn3)cc1)C[C@@H](C)[C@H](OC)CN(C)C2=O`, the relative growth is inactive: 1.03. Then `C=CCn1c(=O)c2cnc(Nc3ccc(N4CCN(C)CC4)cc3)nc2n1-c1cccc(C(C)(C)O)n1`, with inactive: 0.979. Then `CC(C)Cn1c(=O)[nH]c2c1c(=O)n(C)c(=O)n2C`, with inactive: 0.94; and `O=C(C[C@H]1CC[C@@H]2[C@H](COC[C@@H](O)CN2C(=O)c2ccccc2F)O1)N1CCN(c2ccccc2)CC1`, with inactive: 1.01. In the case of `C[C@@H]1CN([C@H](C)CO)C(=O)c2c(c3ccccc3n2C)-c2ccccc2CO[C@H]1CN(C)Cc1cccc(C(=O)O)c1` it was inactive: 0.994; in that of `COCCCNC(=O)[C@@]1(C)c2ccccc2C(=O)N(Cc2cc(F)cc(C(F)(F)F)c2)[C@H]1c1ccc(CO)cc1`, inactive: 0.986; in that of `C[C@@H]1CN([C@H](C)CO)C(=O)Cc2cc(NC(=O)Nc3ccc(F)cc3)ccc2O[C@H]1CN(C)Cc1ccc(C(=O)Nc2ccccc2N)cc1`, inactive: 1.03.

On to `COc1ccc(NC(=O)Nc2ccc3c(c2)CC(=O)N([C@H](C)CO)C[C@H](C)[C@H](CN(C)Cc2ccc(C(=O)Nc4ccccc4N)cc2)O3)cc1`, for which the relative growth is inactive: 1.01. In the case of `COc1cccc(C#Cc2cnc3c(c2)C(=O)N([C@H](C)CO)C[C@H](C)[C@@H](CN(C)C(=O)C2CCOCC2)O3)c1` it was inactive: 0.944; in that of `O=C(C[C@@H]1C[C@H]2c3cc(NC(=O)NC4CCCC4)ccc3O[C@H]2[C@@H](CO)O1)NCc1ccc(-c2ccccc2)cc1`, inactive: 1. As for `Cc1cc(C(=O)Nc2cccc3c2O[C@H](CN(C)C(=O)Nc2c(C)noc2C)[C@H](C)CN([C@@H](C)CO)C3=O)n(C)n1`, the relative growth is inactive: 1.02. As to `Cn1ncc2c1CCCC2=O`, the relative growth is inactive: 0.985. Then `O=C(Nc1cccc2ccccc12)c1ccc(C(F)(F)F)cc1`, with inactive: 0.975. In the case of `CCCC#Cc1ccc2c(c1)O[C@H](CN(C)S(=O)(=O)c1cccc(F)c1)[C@@H](C)CN([C@H](C)CO)S2(=O)=O` it was inactive: 1.03; in that of `C[C@@H]1CN([C@H](C)CO)C(=O)c2cc(NC(=O)CCCN(C)C)ccc2O[C@H]1CN(C)C(=O)NC1CCCCC1`, inactive: 0.99. Then `C[C@H](CO)N1C[C@H](C)[C@@H](CN(C)C(=O)Nc2ccc3c(c2)OCO3)Oc2ccc(NS(C)(=O)=O)cc2C1=O`, with inactive: 0.979; and `C[C@H](CO)N1C[C@H](C)[C@@H](CN(C)Cc2ccc(C(=O)O)cc2)Oc2ccc(NC(=O)CCN3CCOCC3)cc2C1=O`, with inactive: 0.998. For the compound `[Fe+3].CC/1=C(CCC(=O)O)/C/2=C/c3[nH]c(c(c3CCC(=O)O)C)/C=C/3\N=C(/C=C/4\N=C(\C=C1/N2)C(=C4C)C=C)C(=C3C)C=C`, the relative growth was inactive: 0.828. In the case of `Cc1noc(C)c1S(=O)(=O)Nc1ccc2c(c1)C(=O)N([C@H](C)CO)C[C@H](C)[C@@H](CN(C)Cc1ccc3c(c1)OCO3)O2` it was inactive: 0.989; in that of `C[C@H]1CN([C@@H](C)CO)C(=O)c2cc(NC(=O)CCCN(C)C)ccc2O[C@H]1CN(C)Cc1ccccc1`, inactive: 1; in that of `Cc1c(N)cncc1C(=O)O`, inactive: 0.993. Then `C[C@H](CO)N1C[C@H](C)[C@H](CN(C)CC2CCCCC2)OCCCC[C@H](C)Oc2ccc(NC(=O)Nc3ccc(F)cc3)cc2C1=O`, with inactive: 1.01.

Consider `C[C@@H](O)CO`, for which the relative growth is inactive: 0.996. Then `C[C@@H]1CN([C@H](C)CO)S(=O)(=O)c2ccc(C#CC3CC3)cc2O[C@H]1CN(C)C(=O)Cc1ccncc1`, with inactive: 1.03; and `Nc1cncc(Cl)n1`, with inactive: 0.977; and `C[C@@H]1CN([C@H](C)CO)C(=O)Cc2cc(NS(C)(=O)=O)ccc2O[C@H]1CN(C)Cc1ccc(C(=O)Nc2ccccc2N)cc1`, with inactive: 1. For `CC(C)NC(=O)N(C)C[C@H]1Oc2ccc(NS(=O)(=O)c3ccc(F)cc3)cc2C(=O)N([C@H](C)CO)C[C@@H]1C`, the relative growth was inactive: 1. In the case of `COc1cccc(S(=O)(=O)N(C)C[C@@H]2OCc3cn(nn3)CCCC(=O)N([C@@H](C)CO)C[C@H]2C)c1` it was inactive: 0.976; in that of `C[C@H]1CN([C@@H](C)CO)C(=O)Cc2cc(NS(=O)(=O)c3cn(C)cn3)ccc2O[C@@H]1CN(C)S(=O)(=O)c1cn(C)cn1`, inactive: 1.

In the case of `Cc1ccc(S(=O)(=O)Nc2ccc3c(c2)C(=O)N([C@@H](C)CO)C[C@H](C)[C@@H](CN(C)C(=O)Cc2ccccc2)OCCCC[C@H](C)O3)cc1`, the relative growth was inactive: 1.02. In the case of `C[C@@H]1CCCCO[C@@H](CN(C)C(=O)Nc2ccccc2)[C@@H](C)CN([C@H](C)CO)C(=O)c2cc(NC(=O)NC3CCCCC3)ccc2O1`, the relative growth was inactive: 0.973.

For `COc1ccc(-c2c(C)oc3ccc(Cl)cc23)cc1`, the relative growth is inactive: 0.992. In the case of `COc1ccc(S(=O)(=O)N(C)C[C@H]2OCCCC[C@H](C)Oc3ccc(NC(=O)NC4CCCCC4)cc3C(=O)N([C@H](C)CO)C[C@H]2C)cc1` it was inactive: 1.06; in that of `C[C@@H]1CN([C@H](C)CO)C(=O)Cc2cc(NS(=O)(=O)c3cccs3)ccc2O[C@@H]1CN(C)Cc1ccc(-c2ccccc2)cc1`, inactive: 0.988; in that of `N[C@H](C(=O)O)[C@@H](OCc1ccccc1)C(=O)O`, inactive: 1. Turning to `C[C@@H]1CN([C@H](C)CO)C(=O)c2cc(NC(=O)Nc3cccc4ccccc34)ccc2O[C@@H]1CN(C)Cc1ccc(-c2ccccc2)cc1`, the relative growth was inactive: 1. Then `COCCNC(=O)C[C@@H]1CC[C@H]2[C@@H](COC[C@H](O)CN2C(=O)Nc2ccc3c(c2)OCO3)O1`, with inactive: 1.01; and `COc1ccc2c3c([nH]c2c1)[C@H](CO)N(CC1CCCCC1)C[C@]13CCN(CC1)C(=O)NC1CCCC1`, with inactive: 1.04. Then `Cc1noc(C)c1NC(=O)N(C)C[C@@H]1Oc2ccc(NC(=O)NC(C)C)cc2C(=O)N([C@H](C)CO)C[C@H]1C`, with inactive: 0.987. Then `C[C@@H]1CN([C@H](C)CO)C(=O)c2cc(NC(=O)c3ccccc3)ccc2O[C@@H](C)CCCCO[C@@H]1CN(C)Cc1ccccc1`, with inactive: 0.999.
